Data taken from the supplement of paper PMC10126150.
Values marked as one replicate rest on one cluster of the flow cell; about a third of the high ones do not repeat.

System: ATP
Assay: switch fluorescence ratio, 500 uM ATP over buffer (Cy3 cluster intensity, sum of 5 cycles each) (fold (ratio)); higher = stronger signal-on switching upon ATP binding; sequences stand for … in TCGTCGGCAGCGTCAGATGTGTATAAGAGACAGTTTTTTTTTTTTTTTTTTTTTTTTT…TC
Details: aptamer strand: ATP DNA aptamer (quencher-CACCTGGGGGAGTATTGCGGAGGAAGG + anchor), 100 nM annealed; ATP concentration: 500 uM; one replicate
Summary of the method: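 The fluorescence ratio divides summed target-cycle Cy3 intensity by summed buffer-cycle Cy3 intensity for each cluster and is averaged per switch-domain sequence. Cy3-labelled switching-strand clusters on a modified Illumina MiSeq flow-cell were annealed to 100 nM quencher-labelled ATP aptamer, then imaged in selection buffer and again after 15 min with 500 uM ATP at 22 °C. Five such cycles were run, with NaOH stripping and re-annealing between them, and clusters outside 100-1000 RFU were excluded.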
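Note: ATP exposure 15 min at 22 °C before imaging.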

Sequence | switch fluorescence ratio
ACAATGGTTT | 0.964
TTTTATTTGA | 1.01
AAGAACGTAT | 1.01
TCGGTTACGT | 1.01
GCGTATGAAA | 0.987
AAAGTGGACT | 0.97
ATCTGTTCAA | 1.03
GTCCCCGAGA | 1.02
ATGTACTGGT | 1.05
AAGAGGTCGG | 0.968
CCTGGGGCGA | 1.59
AAATGTTGCT | 0.959
GTAACGATGT | 1.01
TTTCAGGTGA | 0.98
AAGGGAGCTC | 0.97
AGTTCGCCGT | 1.07
TATTCTCAGT | 0.991
GTATGCTGTT | 1.03
GCATAGATGC | 0.989
TAGAGGCCGT | 1.17
ACATTATATA | 1.07
GCTGGCACTC | 0.977
AACTATGAGC | 0.984
TATTGCTCC | 1.05
CAGGTAGGTC | 1.05
TTATGAGTGT | 1.02

Sequence | switch fluorescence ratio
TATTCCTTCT | 1.04
AAAGATCCCT | 0.972
CCAAGCTGTG | 0.978
ATTACTGACC | 1.27
TACATATAGA | 1.05
CATACCGGAC | 1.93
AGTTAGTCCC | 0.981
CTGGTTCGGG | 0.967
AGGCGGACCG | 0.921
AATAGGATGC | 1
GTGGGTTAGT | 1.05
CCCTTTGTGC | 1.09
TCCTAAAAAG | 1.01
TATGCGTGGT | 1.03
TTTCTGGGAA | 0.998
CGGCCGTCAT | 1
GGAAGAATTC | 0.968
CGTTTCTCGG | 0.968
GGCAAAATGG | 1
CAGGTGTGAG | 1.03
ATGGCTGTAT | 1.04
CGGCTAGTAC | 3.56
GGTTCCGAAT | 1.06
GAGGTTGGAA | 0.982
CGCAGTAGGT | 1.1
TAGCGTCATG | 1.03

Sequence | switch fluorescence ratio
TGGGGTTTTC | 1.02
TATGTAACGA | 0.98
TAGTCGAAT | 0.989
TTTAACTATT | 0.975
TGACCGGAAT | 2.43
ATGGGTTACA | 0.975
CCGTCTCGCT | 1.09
CGCGATCAGG | 1.24
GCGTTTATAT | 1.02
GGGCTATGAC | 0.998
AATCGCGAGG | 1.02
TAGATCCATG | 1.01
CAGTCATCCC | 1.04
TTCGATTCCT | 1.02
TCTGTGCGG | 0.994
ATTTCGTCGG | 0.981
ATTTTTTTGG | 1.02
CTATCCGCCG | 0.967
TTCAGTTTGC | 1.02
ATGGGACGCA | 1.03
GGCTGAGTAT | 1
GGAACAGCTC | 0.993
CATATGTGCT | 1.02
ATTCCTATGG | 0.984
TCTATGCCAG | 1.02
TAATGGCGTC | 1.06

Sequence | switch fluorescence ratio
CATGCGTGGT | 1.01
CTCGAAATTG | 0.981
GGCATAGGAC | 1.06
TCATGCAGGT | 1.04
TTTCTACGAA | 1.11
CATTGATTCG | 1.01
GGACACGCTA | 1.33
GAGGTGGATT | 1.01
AGGTTCTGCT | 0.956
AGCGCTTAGC | 1.08
ATTCCACTTT | 1.02
GATCGCCTCG | 0.981
AAAAAAACTA | 1.04
GTTCATACAC | 1.05
ATCTGGAAGA | 1.03
CAAGAAGGTG | 1.38
TTACCTGTCG | 0.975
ATCTTCAACG | 1.09
CATATACCCT | 1.09
GAACGAGGGC | 0.979
AGTCGTTTTC | 1.04
GACCTAGCAG | 0.995
CCATATGGAT | 1.01
TCCGCATTAG | 2.44
ATGAGGGCGT | 0.99
ATGTCCGTGT | 0.993

Sequence | switch fluorescence ratio
AGGCCTTCGT | 1.08
ATTCCCGAGG | 1.01
CGTGGGCGTC | 1.03
TTTTCCACG | 1
AACGAGTTCA | 0.997
CTGACCAGTC | 1.2
TCAGTTCCAA | 0.976
GGCTCAGTCA | 0.999
GGCATGGTGC | 1.01
ATGGAAAACG | 1.01
TGGCGCTTAT | 0.971
AACGGGGCAC | 1.01
GGACTAGGGT | 1.01
AAGTAATTTG | 1.04
TAATTACTA | 1.06
GACGGGGTTG | 1.03
TTACTATCCG | 0.992
GATACCGAAC | 1.57
ACCCTAGGGC | 1.04
CTCTTGGGA | 1.04
CTACATGTAG | 1.02
AAGCCTGTA | 0.988
TAGAGAGCAG | 0.994
TCACTTCC | 1.81
ATAGGGACGT | 1.02
TTTACACG | 1.02

Sequence | switch fluorescence ratio
GTGGCTTCAC | 0.989
ACTACCTAGA | 1.09
CGCGTATCTC | 1.19
AACTTGGGT | 0.939
CATATCGTGT | 0.973
CGGACCCCAG | 1.17
ATGAGACTTA | 0.978
CCCGCCCATG | 1.35
GGGAAACTTA | 0.989
AGCGCGAATA | 1.09
GCCCTCTACT | 1.01
ACAGAAACGT | 1.08
TGATTCATTA | 0.971
ATAGTAGAAG | 0.964
ATGGTTCGGA | 0.962
TGATTATGAT | 0.999
AGACTGCTTC | 0.92
TTCAGGTGTT | 2.24
TAATAACGGT | 1.01
CTGGAATGGT | 1.08
AATACTCGGA | 1.05
ACGGGGGAG | 0.921
GCTGTTTGAG | 0.986
